Experimental data as given in the supplement of paper PMC11417369.
± gives the standard deviation of the averaged measurements. The list shows a part of the results.

system: PfAP2-G AP2 domain (GST-tagged); test: gcPBM binding intensity (ln(normalized median fluorescence intensity)); higher = stronger DNA binding
Outline: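 GST-tagged P. falciparum DNA-binding domains, expressed in E. coli (about 25 μg on average), were applied for 1 h to an Agilent 4 × 180k array of primer-extended double-stranded 36-bp intergenic genomic probes plus negative controls. The binding buffer was 1× PBS with 1% milk, 0.2 mg/ml BSA, 0.5% salmon testes DNA and 0.03% Triton X-100. Bound protein was detected with Alexa488 anti-GST antibody and scanned at 488 nm. Binding intensity is the highest Masliner-normalised natural-log median intensity across replicate spots of either probe orientation.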

Row | Sequence | gcPBM binding intensity (ln)
1 | ATTTATATTTATGATACACACACGTATATTCACATA [CACACA_site460] | 10.4 ± 0.26
2 | ATATATATATTTTTATGAGGCATAAGTAATATTTTT [TGCATGCA_negctrl_site317] | 9.88 ± 0.13
3 | AATGTAATATAAATATGTACATAATATATATAATTA [XGTACX_site4762] | 11.1 ± 0.55
4 | TTTTTATTTTTTTAGTATACGTACTAGGTTTGTTCT [XGTACX_site645] | 11.1 ± 0.79
5 | ATATATTTATATATATGTACTTAAAACATTTCGATG [XGTACX_site328] | 11.2 ± 0.83
6 | AAAAAAAATTAATTAGTGCAAAATATATACAAAATA [GTGCAC_site9762] | 10.06 ± 0.085
7 | TAAGAAAATATTTATGTATGCATGTCCTAATATTTC [TGCATGCA_site295] | 10.4 ± 0.47
8 | ATATAAAATATTAGTAGTACCATTAACAGTATTGTT [XGTACX_site5912] | 11 ± 0.55
9 | ATATATATAAACATATGTACACATATATATAATACA [XGTACX_site1848] | 11.4 ± 0.89
10 | TGTATGTATAGAAACACACATACATATATATAATAT [CACACA_site1405] | 9.905 ± 0.035
11 | TATGAAAAAAAAAATACACACACGAGTTGTTATACA [CACACA_site3188] | 9.84 ± 0.071
12 | AATGAAATATGGATGGGTACACATTTGATTTTATTA [XGTACX_site6155] | 11.4 ± 0.75
13 | ATCATCTATGTTATTACACACGTTATGTTATTATAA [CACACA_site5502] | 9.94
14 | TAACGAATTTAAATTTGTACATATATAAATATATAA [XGTACX_site2168] | 10.7 ± 0.49
15 | TTTAGATAATTCATTACACACATGTATATTTATATA [CACACA_site7602] | 9.96 ± 0.15
16 | TTTTTTTTTTTTTTATGTACGAAAGAAAAGCACATA [XGTACX_site8261] | 10.9 ± 1.2
17 | AAATTATTAAAAAAAAGTACATATATATATATATAT [XGTACX_site8313] | 11.3 ± 1
18 | ATAAATAATATATATACACACATATCTATACATATT [CACACA_site487] | 9.865 ± 0.064
19 | TATATATATAATATTGCACACAAAATTAAAAGTAAA [CACACA_site7889] | 9.99 ± 0.22
20 | AAAAAAAAAAAATGTGTGCACATTATTTCAACTTAA | 10.5 ± 0.47

Row | Sequence | gcPBM binding intensity (ln)
21 | TATTTTATCTATTTGTGTACTTATATTTATGCAAAA [XGTACX_site1499] | 11.4 ± 0.88
22 | ATAATACACGATTATTTTCCCTTTATGTAAATATAT [CACACA_negctrl_site1107] | 10 ± 0.14
23 | ATTATCAATATGAAGGTGCATTTAAATAATATTTAC | 9.99 ± 0.11
24 | AGAAAGAAAGAATACACACACACATATATAAATATC [CACACA_site7716] | 10.1 ± 0.11
25 | TATATATATGTGTTTACACACAATAATGAATTAAAA [CACACA_site4659] | 9.825 ± 0.078
26 | TATGAACATAAATTTGCACACTGGATATAATATATA [CACACA_site2155] | 10 ± 0.12
27 | TATATTCTTTATAGGTGTACTTAATAAATAAAAAAT [XGTACX_site5378] | 11.5 ± 0.98
28 | TACGTAAAAATAGGACGTACTTATTTAGAAACCATA [XGTACX_site2498] | 11.5 ± 0.81
29 | TACAAAATGGGGAACACACACATATATATATATATA [CACACA_site3844] | 10.6 ± 0.52
30 | TTGGTACCTATAGATACACACATATATACCTATATA [CACACA_site5812] | 10.9 ± 0.61
31 | ACTAAACTTTTATGTACACACATATAACATTAATTT [CACACA_site5276] | 11.5 ± 0.81
32 | AAATATTATAGCACCACACACTTATTTTATTTATAT [CACACA_site7133] | 10.2 ± 0.092
33 | TATTTTAATATGTATACATGCATACCTACTCATACA [TGCATGCA_site779] | 10.1 ± 0.16
34 | AACTTGTATTTATACACACACACACTGTCTTTTTTT [CACACA_site7009] | 10.13 ± 0.057
35 | TAAAATTTTATAAAGGAACACACATTTTTTTTTTTT [CACACA_site8740] | 10.1 ± 0.29
36 | TAGACAAAATATAATGCACACTATTATTTTTATTTA [CACACA_site5508] | 9.87 ± 0.16
37 | GTATATTATATTGGGTGTACCATATATAATATAATC [XGTACX_site8579] | 11.1 ± 0.7
38 | TTATAAATAAAAAATACACACATATATATATATATA [CACACA_site207] | 9.92 ± 0.37
39 | AAAAATTAACAAAAGGTGCAATTTATTTATTAACGG | 9.83 ± 0.014
40 | AAAAAAGTTGTATTTGCACACATAAAAAAAAGATAT [CACACA_site3839] | 10.4 ± 0.33

Row | Sequence | gcPBM binding intensity (ln)
41 | AATTTAAAAATGGACACACACAAAAAATAATACTTA [CACACA_site250] | 10.9 ± 0.59
42 | TAAAAATATATATGATTGCACTTAGGACAATATATA | 10.3 ± 0.36
43 | GGAAACAAAAAATATATACACACTAATCATAAAAAA [CACACA_site7890] | 9.935 ± 0.092
44 | ATTAATATATTATCATGTACACAAAAATAATTTTAT [XGTACX_site7257] | 11.6 ± 1
45 | TATTCTCTCTTATGAACACACATTTTTATTTTCAAA [CACACA_site7554] | 10.2 ± 0.12
46 | AAGAAAAATATATAAATAAATAAATATATAAATATA [CACACA_negctrl_site836] | 9.24 ± 0.38
47 | AGCAAATAAATAAATAAATAAATAAATATATATATA [TGCATGCA_negctrl_site40] | 9.96 ± 0.88
48 | ATAATTAACAAATACACACACACACGCCCACAAAAA [CACACA_site6389] | 10.9 ± 0.54
49 | TAAATATATATTATATGTACTTATATATATATATAT [XGTACX_site4448] | 11.2 ± 0.78
50 | TTTTTCATTTTTAAAATAATTATAATATTATACATA [XGTACX_negctrl_site43] | 10 ± 0.14
51 | TAAATCAGCCATAACACACATACATATATACATAAA [CACACA_site396] | 9.895 ± 0.078
52 | ATATATATGTGTAAAAGTACATATATTTTGAAATAT [XGTACX_site4024] | 11.2 ± 0.79
53 | TTTTAATAAAAGCCCATGCACACCTTAGAAAGTTTT [CACACA_site346] | 10.04 ± 0.099
54 | TCTATATAGATTTGCACACATAAAAATGCTTATATA [CACACA_site2389] | 9.97 ± 0.2
55 | ATTACATATTGATAAGTGCAAGTGTGAGAAATGTTA | 10.2 ± 0.14
56 | AATATATTATATATATGTACATATGTGTATACATTT [XGTACX_site937] | 11.1 ± 0.54
57 | TTTTATTTATTTTATTGTACATATATAAAACTATGA [XGTACX_site3476] | 11.1 ± 0.63
58 | TATATATATGTATATGTGCACAGTTTTCTTATTAAA [GTGCAC_site9990] | 10.4 ± 0.24
